The supplement of paper PMC3334620
In all, about 33,000 sequences were measured (“E-score (-0.5 to 0.5)”: median about -0.016, highest 2% from about 0.31 on). The list shows a part of the results.

Each sequence was assayed against Cst6 (UniProt P40535) (assay: PBM E-score (8-mer binding enrichment) (E-score (-0.5 to 0.5)); higher = stronger / more preferred TF binding; most listed sequences are background and not binding sites). Conditions: protein concentration: 200 nM; construct: GST-DNA-binding domain.
How it was run: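 Masliner-normalised scans of fluorescent anti-GST signal were the basis for scoring. That signal came from GST-tagged yeast transcription factors applied at about 100-200 nM to double-stranded universal all-10-mer Agilent arrays on fresh or once-stripped slides. Each ungapped eight-base word, pooled with its reverse complement, received an E-score from the Universal PBM Analysis Suite.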

| Sequence | PBM E-score |
| --- | --- |
| CCTTGAGC | 0.00672 |
| CTTCGATC | -0.0364 |
| TGCACACA | -0.017 |
| CACAACGG | -0.00695 |
| CATGGCCG | -0.137 |
| AAACAGGC | -0.0905 |
| GGAGAGAA | -0.12 |
| AAGAACAA | 0.327 |
| ATGGTACC | -0.256 |
| GAACCTGC | -0.17 |
| AAGCCGTC | 0.082 |
| ACTGTCAT | 0.0752 |
| AGATTTAC | 0.176 |
| ATGACTCA | 0.309 |
| CTTCGAAA | 0.13 |
| AAGTGAGG | -0.122 |
| ACAGTCAT | -0.0182 |
| AACAGTCA | -0.00564 |
| ACCGCTCC | -0.165 |
| AGTGGCAC | -0.115 |
| CGGTAACC | -0.186 |
| GTTCAAAC | 0.214 |
| ATGAAGAG | 0.0318 |
| TGGTAGAA | -0.0488 |
| TAAAAGAA | 0.171 |

| Sequence | PBM E-score |
| --- | --- |
| CCCTACCG | -0.074 |
| CATACTGC | -0.0994 |
| CAGGCGGG | -0.333 |
| CAAGAATA | 0.187 |
| ATCTACGC | 0.136 |
| ACCCAGAT | -0.16 |
| ATAAGTCC | -0.125 |
| GACGTGAC | 0.394 |
| CGGACGTC | 0.252 |
| CGCCATAA | 0.134 |
| GAGAACAC | 0.0644 |
| GAACCACA | -0.0143 |
| TCGAAGCA | -0.0376 |
| CCTGTTCC | -0.0903 |
| CGTCGCAC | -0.00823 |
| ACGGGATG | -0.202 |
| CGGTACGC | -0.163 |
| GGGCAGTA | -0.224 |
| GGGTCACA | -0.176 |
| GGAGCGAA | -0.0818 |
| ATGGCATC | 0.132 |
| AGATTTCA | 0.0869 |
| TATTAAGA | 0.0221 |
| ATCTATTC | 0.116 |
| GTATTTGA | 0.00135 |

| Sequence | PBM E-score |
| --- | --- |
| AGCCTCTG | -0.334 |
| GATCTAGA | -0.0241 |
| ACATCCAT | 0.0497 |
| AACTAAGA | 0.217 |
| CCCAAAGA | -0.0301 |
| CAGGTGTC | -0.00571 |
| GAAAGCGA | -0.041 |
| AACTGCTA | -0.0301 |
| TACACGCA | -0.0207 |
| TAAGCCAA | -0.0805 |
| ACACAATA | 0.183 |
| GACAGTGA | 0.13 |
| TACGGACA | -0.00309 |
| AGAATGTC | 0.134 |
| ATCTTGTA | 0.0755 |
| GATTACGC | 0.329 |
| ACCCGGGG | -0.233 |
| TAGTGGGA | -0.299 |
| CCGAGCCA | -0.157 |
| TCAGGAAA | 0.053 |
| ATATTGGA | 0.0379 |
| AAGTGATC | 0.0504 |
| CTCGGTCA | 0.0022 |
| GCAAATGA | 0.103 |
| AATTTGCT | 0.0623 |

| Sequence | PBM E-score |
| --- | --- |
| CAAATGCA | -0.0341 |
| TAGTATGA | 0.273 |
| CGAAAGAG | 0.111 |
| ACCGCTAA | 0.0585 |
| CATTATCA | 0.137 |
| AGACAATA | 0.213 |
| AGCGAAAG | 0.0106 |
| AATTTAAT | 0.282 |
| GCGAGAGC | 0.0503 |
| TCATAGAA | 0.229 |
| GACGATAC | 0.0236 |
| GAAAGTAC | 0.113 |
| AGAGCCCC | -0.205 |
| ACACTTGA | -0.173 |
| CCACATAC | 0.0455 |
| GACCAACA | 0.164 |
| ATAGAAGA | -0.108 |
| GCATCATA | 0.339 |
| ACATAGGT | 0.108 |
| ATCACGCC | 0.0769 |
| CCTACGCC | -0.167 |
| AGAGCGAG | -0.126 |
| ACACACCA | 0.0971 |
| GTAGACGA | 0.0284 |
| CCGTCTCG | 0.0848 |

| Sequence | PBM E-score |
| --- | --- |
| GTGCCGGA | -0.104 |
| CTAGAGGC | -0.149 |
| ATCACGGC | 0.141 |
| GTTCCTGA | -0.185 |
| AGTGACGC | 0.438 |
| AATATGAT | 0.233 |
| CGCTTTTA | 0.114 |
| ACGATCGA | 0.0465 |
| AGTGCAGC | -0.108 |
| GCTTAACC | -0.143 |
| AACCACTA | -0.0168 |
| GGACGGGA | -0.285 |
| GAGTAAGA | 0.153 |
| CGAAACAC | 0.125 |
| GACTTCCC | -0.16 |
| GCTCGACA | -0.248 |
| CAGGCCTC | -0.418 |
| CACGATTC | 0.0982 |
| AACAAGGC | -0.0127 |
| CGCATAAC | 0.134 |
| ATTACGTC | 0.485 |
| AACTTGCT | -0.117 |
| TATTCCGA | 0.0724 |
| ACCTGGAG | -0.166 |
| TACTGCAA | -0.0176 |

| Sequence | PBM E-score |
| --- | --- |
| TACAGTGA | 0.141 |
| AGCAAGGC | -0.0509 |
| CCAATCGC | -0.0449 |
| TCCAGCCA | -0.172 |
| ACCCTTGG | -0.267 |
| TGCAGGCA | -0.107 |
| AGATGCTA | 0.00857 |
| ACACGTGG | 0.0374 |
| AAATGCAT | 0.0407 |
| ATGACAGG | 0.0675 |
| CTGTCGGA | -0.175 |
| GGCATAAC | 0.102 |
| AACATGGG | -0.0504 |
| ACAAGTCA | -0.037 |
| CCGATATC | -0.149 |
| AAGGGCTG | -0.306 |
| GAAGATGC | -0.139 |
| ACGCGGTG | -0.101 |
| AATACAAA | 0.287 |
| CAGACAGG | -0.15 |
| GGCGATCA | -0.0417 |
| AGATTGGA | -0.0529 |
| CCTATACC | -0.169 |
| CGCCAAAC | -0.0827 |
| GAACCTAA | -0.124 |

| Sequence | PBM E-score |
| --- | --- |
| GGAGGGAA | -0.42 |
| CATGAGCC | -0.159 |
| AATCACTA | 0.159 |
| ATTGGGGA | -0.109 |
| CGCAGTAG | -0.101 |
| AGCCTTCA | 0.0604 |
| CTAGTGAC | 0.234 |
| TGCAGCCA | -0.11 |
| CTCGCCCA | -0.136 |
| TAAAGCAA | 0.0677 |
| CATTGCAA | -0.126 |
| AATGCCGT | 0.418 |
| AGGACGAA | -0.0114 |
| AACACCTC | -0.0672 |
| CGCATCGA | 0.108 |
| TATCACCA | 0.123 |
| AGCCAGCT | -0.0742 |
| GGTACAAA | 0.00094 |
| CTCGATGA | 0.112 |
| AATTGCCA | 0.0303 |
| ATTGTCCG | -0.00764 |
| CCATAGCG | -0.0739 |
